# Measurements published in the supplement of paper PMC8728848.
# The list shows a part of the results.
# B1: FimD (Bordetella pertussis) (protein)
# chain: MPARVISFCGAALAVWAGLAVQPAMAVDPPVDCGRALGLHFWSSASLISDQTPDGTLIGKPVVGRSLLSKSCKVPDDIKEDLSDNHDGEPVDIVLELGSNYKIRPQSYGHPGIVVDLPFGSTEETGIAIYIDFGSSPMQKVGERQWLYPQKGEVLFDVLTINGDNAEVRYQAIKVGPLKRPRKLVLSQFPNLFTYKWVFMRGTSQERVLAQGTIDTDVATSTIDLKTCRYTSQTVSLPIIQRSALTGVGTTLGMTDFQMPFWCYGWPKVSVYMSATKTQTGVDGVALPATGQAAGMASGVGVQLINGKTQQPVKLGLQGKIALPEAQQTESATFSLPMKAQYYQTSTSTSAGKLSVTYAVTLNYD
# How the values were obtained:
# Test in all cases: glycan array binding signal (z-score within array); higher = stronger binding
# Details in all cases: glycan notation: IUPAC condensed, linker removed
# [1] = biological target: Fuc(a1-3)[Gal3S(b1-4)]GlcNAc6S
# Summary of the method: (§1)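 The binding signal is a Z-score computed within each array. Data were drawn from 3228 arrays in the Consortium for Functional Glycomics database, restricted to those with a known protein sequence. Scores were averaged over arrays of the same protein sequence at different concentrations or buffers, and over linkers, and negative values can be taken as non-binding.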
# [2] = biological target: Fuc(a1-3)[GalNAc(b1-4)]GlcNAc
# Summary of the method: as §1
# [3] = biological target: Fuc(a1-3)[GalNAc(b1-4)]GlcNAc6S
# Summary of the method: as §1
# Fuc(a1-4)GlcNAc = biological target: Fuc(a1-4)GlcNAc
# Summary of the method: as §1
# Fuc(b1-3)GlcNAc = biological target: Fuc(b1-3)GlcNAc
# Summary of the method: as §1
# Gal(a1-2)Gal = biological target: Gal(a1-2)Gal
# Summary of the method: as §1
# Gal(a1-3)Gal = biological target: Gal(a1-3)Gal
# Summary of the method: as §1
# Gal(a1-3)Gal(b1-3)GlcNAc = biological target: Gal(a1-3)Gal(b1-3)GlcNAc
# Summary of the method: as §1
# [4] = biological target: Gal(a1-3)Gal(b1-3)GlcNAc(b1-2)Man
# Summary of the method: as §1
# [5] = biological target: Gal(a1-3)Gal(b1-3)GlcNAc(b1-2)Man(a1-3)[Gal(a1-3)Gal(b1-3)GlcNAc(b1-2)Man(a1-6)]Man(b1-4)GlcNAc(b1-4)GlcNAc
# Summary of the method: as §1
# [6] = biological target: Gal(a1-3)Gal(b1-3)GlcNAc(b1-3)GalNAc
# Summary of the method: as §1
# [7] = biological target: Gal(a1-3)Gal(b1-3)GlcNAc(b1-6)GalNAc
# Summary of the method: as §1
# [8] = biological target: Gal(a1-3)Gal(b1-3)[Fuc(a1-4)]GlcNAc(b1-2)Man(a1-3)[Gal(a1-3)Gal(b1-3)[Fuc(a1-4)]GlcNAc(b1-2)Man(a1-6)]Man(b1-4)GlcNAc(b1-4)GlcNAc
# Summary of the method: as §1
# Gal(a1-3)Gal(b1-4)Glc = biological target: Gal(a1-3)Gal(b1-4)Glc
# Summary of the method: as §1
# Gal(a1-3)Gal(b1-4)GlcNAc = biological target: Gal(a1-3)Gal(b1-4)GlcNAc
# Summary of the method: as §1
# [9] = biological target: Gal(a1-3)Gal(b1-4)GlcNAc(b1-2)Man
# Summary of the method: as §1
# [10] = biological target: Gal(a1-3)Gal(b1-4)GlcNAc(b1-2)Man(a1-3)[Gal(a1-3)Gal(b1-4)GlcNAc(b1-2)Man(a1-6)]Man(b1-4)GlcNAc(b1-4)GlcNAc
# Summary of the method: as §1
# [11] = biological target: Gal(a1-3)Gal(b1-4)GlcNAc(b1-3)GalNAc
# Summary of the method: as §1
# [12] = biological target: Gal(a1-3)Gal(b1-4)GlcNAc(b1-6)GalNAc
# Summary of the method: as §1
# [13] = biological target: Gal(a1-3)Gal(b1-4)[Fuc(a1-3)]GlcNAc
# Summary of the method: as §1
# [14] = biological target: Gal(a1-3)Gal(b1-4)[Fuc(a1-3)]GlcNAc(b1-2)Man(a1-3)[Gal(a1-3)Gal(b1-4)[Fuc(a1-3)]GlcNAc(b1-2)Man(a1-6)]Man(b1-4)GlcNAc(b1-4)GlcNAc
# Summary of the method: as §1
# Gal(a1-3)GalNAc = biological target: Gal(a1-3)GalNAc
# Summary of the method: as §1
# [15] = biological target: Gal(a1-3)[Gal(a1-4)]Gal(b1-4)GlcNAc
# Summary of the method: as §1
# [16] = biological target: Gal(a1-4)Gal(b1-3)GlcNAc(b1-2)Man(a1-3)[Gal(a1-4)Gal(b1-3)GlcNAc(b1-2)Man(a1-6)]Man(b1-4)GlcNAc(b1-4)GlcNAc
# Summary of the method: as §1
# Gal(a1-4)Gal(b1-4)Glc = biological target: Gal(a1-4)Gal(b1-4)Glc
# Summary of the method: as §1
# Gal(a1-4)Gal(b1-4)GlcNAc = biological target: Gal(a1-4)Gal(b1-4)GlcNAc
# Summary of the method: as §1
# [17] = biological target: Gal(a1-4)Gal(b1-4)GlcNAc(b1-2)Man(a1-3)[Gal(a1-4)Gal(b1-4)GlcNAc(b1-2)Man(a1-6)]Man(b1-4)GlcNAc(b1-4)GlcNAc
# Summary of the method: as §1
# [18] = biological target: Gal(a1-4)Gal(b1-4)GlcNAc(b1-3)Gal(b1-4)Glc
# Summary of the method: as §1
# Gal(a1-4)GlcNAc = biological target: Gal(a1-4)GlcNAc
# Summary of the method: as §1
# Gal(a1-6)Glc = biological target: Gal(a1-6)Glc
# Summary of the method: as §1
# Gal(b1-2)Gal = biological target: Gal(b1-2)Gal
# Summary of the method: as §1
# Gal(b1-3)Gal = biological target: Gal(b1-3)Gal
# Summary of the method: as §1
# Gal(b1-3)Gal(b1-4)GlcNAc = biological target: Gal(b1-3)Gal(b1-4)GlcNAc
# Summary of the method: as §1
# Gal(b1-3)GalNAc = biological target: Gal(b1-3)GalNAc
# Summary of the method: as §1
# [19] = biological target: Gal(b1-3)GalNAc(a1-3)[Fuc(a1-2)]Gal(b1-4)Glc
# Summary of the method: as §1
# [20] = biological target: Gal(b1-3)GalNAc(a1-3)[Fuc(a1-2)]Gal(b1-4)GlcNAc
# Summary of the method: as §1
# Gal(b1-3)GalNAc(b1-3)Gal = biological target: Gal(b1-3)GalNAc(b1-3)Gal
# Summary of the method: as §1
binder,measurement,setting,value
B1,glycan array binding signal (z-score),[1],-0.062
same,glycan array binding signal (z-score),[2],0.051
same,glycan array binding signal (z-score),[3],-0.127
same,glycan array binding signal (z-score),Fuc(a1-4)GlcNAc,1.73
same,glycan array binding signal (z-score),Fuc(b1-3)GlcNAc,-0.068
same,glycan array binding signal (z-score),Gal(a1-2)Gal,-0.465
same,glycan array binding signal (z-score),Gal(a1-3)Gal,-0.055
same,glycan array binding signal (z-score),Gal(a1-3)Gal(b1-3)GlcNAc,-0.352
same,glycan array binding signal (z-score),[4],-0.508
same,glycan array binding signal (z-score),[5],0.616
same,glycan array binding signal (z-score),[6],0.012
same,glycan array binding signal (z-score),[7],-0.163
same,glycan array binding signal (z-score),[8],0.135
same,glycan array binding signal (z-score),Gal(a1-3)Gal(b1-4)Glc,-0.29
same,glycan array binding signal (z-score),Gal(a1-3)Gal(b1-4)GlcNAc,-0.093
same,glycan array binding signal (z-score),[9],-0.109
same,glycan array binding signal (z-score),[10],1.67
same,glycan array binding signal (z-score),[11],-0.373
same,glycan array binding signal (z-score),[12],-0.253
same,glycan array binding signal (z-score),[13],-0.54
same,glycan array binding signal (z-score),[14],0.181
same,glycan array binding signal (z-score),Gal(a1-3)GalNAc,-0.104
same,glycan array binding signal (z-score),[15],0.351
same,glycan array binding signal (z-score),[16],0.407
same,glycan array binding signal (z-score),Gal(a1-4)Gal(b1-4)Glc,-0.034
same,glycan array binding signal (z-score),Gal(a1-4)Gal(b1-4)GlcNAc,0.016
same,glycan array binding signal (z-score),[17],0.299
same,glycan array binding signal (z-score),[18],0.144
same,glycan array binding signal (z-score),Gal(a1-4)GlcNAc,-0.28
same,glycan array binding signal (z-score),Gal(a1-6)Glc,-0.424
same,glycan array binding signal (z-score),Gal(b1-2)Gal,-0.17
same,glycan array binding signal (z-score),Gal(b1-3)Gal,-0.42
same,glycan array binding signal (z-score),Gal(b1-3)Gal(b1-4)GlcNAc,-0.348
same,glycan array binding signal (z-score),Gal(b1-3)GalNAc,-0.281
same,glycan array binding signal (z-score),[19],-0.298
same,glycan array binding signal (z-score),[20],-0.449
same,glycan array binding signal (z-score),Gal(b1-3)GalNAc(b1-3)Gal,-0.089
